Source: PubChem BioAssay AID492947 (National Center for Advancing Translational Sciences (NCATS), 2010)
In all, about 330,000 compounds went through this assay and about 80 (0.02%) were called active. Inconclusive means that the source gave no clear call. Such entries were picked first, then a sample of the others. Calls follow the shape of the dose curve; as a rule, active = well fitted activation curve with a large enough effect; inconclusive = small, poorly fitted or top-dose-only effect; inactive = flat fitted curve, though single readings scatter. Potencies of inconclusive entries are left out as doubtful fits.

molecular target: Beta-2 adrenergic receptor (Homo sapiens) (UniProt P07550); assay: qHTS assay of beta-arrestin-biased ligands of beta2-adrenergic receptor; conditions: beta-arrestin recruitment to beta2AR, cell-based reporter; series mostly up to 46.1 µM; also: nearly all actives have a fitted effect of over 65% in size
Procedure, shortened: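 Tango cells (recombinant beta2-AR with recombinant beta-arrestin; recruitment releases tTA driving luciferase) were treated with compounds titrated up to 46 microM for 18 hr at 37 degrees C. Luminescence gave %Activity, and concentration-response curves were curve-classified.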
Potency is read from the fitted curve at half-maximal effect; tags tell the direction and shape of the fitted curve.

UniProt P07550, sequence (P07550 whole entry, looked up): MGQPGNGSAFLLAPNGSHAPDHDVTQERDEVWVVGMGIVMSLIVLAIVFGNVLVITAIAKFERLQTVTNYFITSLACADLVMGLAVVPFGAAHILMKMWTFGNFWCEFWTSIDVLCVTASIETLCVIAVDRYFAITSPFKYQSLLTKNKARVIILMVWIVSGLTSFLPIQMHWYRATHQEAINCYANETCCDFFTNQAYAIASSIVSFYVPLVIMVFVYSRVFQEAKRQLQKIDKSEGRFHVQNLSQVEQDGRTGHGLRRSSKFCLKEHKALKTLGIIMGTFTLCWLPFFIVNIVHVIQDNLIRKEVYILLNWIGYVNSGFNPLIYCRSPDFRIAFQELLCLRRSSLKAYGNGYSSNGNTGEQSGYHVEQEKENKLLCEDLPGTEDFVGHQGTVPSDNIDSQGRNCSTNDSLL

| Compound | Potency |
| --- | --- |
| NC(=S)N/N=C/c1ncc(C(F)(F)F)cc1Cl | inconclusive [rising, single point] |
| C=CCNC(=S)NC(=O)c1ccc(C)c(Br)c1 | inconclusive [rising, single point] |
| CCN(Cc1ccccc1)C(=O)c1oc2ccc(S(=O)(=O)N3CCOCC3)cc2c1C | inactive |
| CCC(Sc1nc(C)cc(=O)[nH]1)C(=O)Nc1nc2c(s1)CCCC2 (configuration not stated) | inconclusive [activator, partial curve] |
| Oc1ccc(N=Nc2nccs2)c(O)c1 | inconclusive [rising, single point] |
| O=C(CN1CCCC(O)C1)N1c2ccccc2Sc2ccc(C(F)(F)F)cc21 (configuration not stated) | inactive |
| S=C(Nc1nc2c(s1)CCCC2)NC1CC1 | inconclusive [rising, single point] |
| CCOC(=O)c1cnc2ccc(C)cc2c1Sc1ccccc1 | inactive |
| CC(=O)N1CCN(c2ccc(NC(=O)c3cccc(Cl)c3)cc2)CC1 | inconclusive [rising, full curve, poor fit] |
| O=c1ccc(S(=O)(=O)N2CCCC2)c[nH]1 | inconclusive [rising, single point] |
| COc1ccc(C(=O)NCc2nnc(SCC(=O)N3CCCC3)o2)cc1OC | inactive |
| CC(=O)Nc1cc(C(=O)N(C)Cc2ccccc2)ccc1S(=O)(=O)c1ccc(C)cc1 | inactive |
| C/C(=N\Nc1ncc(Cl)cc1Cl)c1ccc(N2CCOCC2)cc1 | inconclusive [rising, single point] |
| COC(=O)c1c(C)[nH]c(C(=O)OCC(=O)c2ccc(C)s2)c1C | inconclusive [activator, partial curve] |
| COc1cc(/C=N/NC(=O)CCn2c3ccccc3c3ccccc32)ccc1O | inconclusive [rising, single point] |
| COc1ccc(/C(C)=N/Nc2nc3ccccc3nc2C)cc1OC | inconclusive [rising, single point] |
| COc1ccc(CN2C(=O)c3cccnc3C2Nc2ccc(C)cc2)cc1 (configuration not stated) | inactive |
| CC1CCC(NC(=O)c2ccc(S(C)(=O)=O)cc2)CC1 (configuration not stated) | inconclusive [activator, partial curve] |
| COc1ccccc1Cn1c(=S)[nH]c2cc(C(=O)NC(C)C)ccc2c1=O | inactive |
| Cc1ccc(C2(C)NC(=O)N(CC(=O)c3ccc4c(c3)OCCO4)C2=O)cc1 (configuration not stated) | inconclusive [rising, single point] |
| CN(Cc1ccccc1)C(=O)N[C@@H](Cc1ccccc1)C(=O)O | inconclusive [rising, single point] |
| O=C(CNc1cccc(Cl)c1)c1ccc(Br)cc1 | inconclusive [rising, single point] |
| CC(C)(C)NNC(=S)Nc1cccc(F)c1 | inconclusive [rising, single point] |
| CC(C)C(=O)NC(=S)Nc1ccc(S(=O)(=O)Nc2nccs2)cc1 | inactive |

| Compound | Potency |
| --- | --- |
| Cc1ccc2[nH]c(=S)cc(C)c2c1 | inconclusive [rising, single point] |
| C/C(CC(C)(C)C1CCCCC1)=N\NC(N)=S | inconclusive [rising, single point] |
| CC1Cc2ccccc2N1C(=O)COC(=O)c1ccc(Cl)nc1 (configuration not stated) | inactive |
| COCCNc1c(-c2cc3ccc(C)c(C)c3[nH]c2=O)nc2ccccn12 | inconclusive [rising, single point] |
| N#Cc1c(-c2ccncc2)c2c([nH]c1=S)CCCC2 | inactive |
| Cc1ccc(SCc2cc(=O)[nH]c(/N=C(\N)Nc3ccc(C)c(C)c3)n2)cc1 | inconclusive [rising, single point] |
| CCOC(=O)N1C/C(=C\c2ccccc2)C(=O)/C(=C/c2ccccc2)C1 | inconclusive [rising, single point] |
| CCn1c(SCC(=O)N/N=C/C=C/c2ccco2)nc2ccccc21 | inconclusive [rising, single point] |
| CN(CC(=O)Nc1ccc(F)c(F)c1F)C(=O)/C=C/c1ccco1 | inactive |
| C=CS(=O)(=O)c1ccc(Oc2ccc(S(=O)(=O)C=C)cc2)cc1 | inconclusive [rising, single point] |
| CN1CCN(C(=O)c2ccccc2[N+](=O)[O-])CC1 | inconclusive [rising, single point] |
| Cc1nn(C)cc1/C=N/NC(=S)Nc1ccccc1 | inconclusive [rising, single point] |
| COc1ccc(-c2noc(CSc3nc(N)c(-c4ccccc4)c(=O)[nH]3)n2)cc1OC | inactive |
| COc1c2c(cc3oc(C)cc(=O)c13)OC(C(C)(C)OC1OC(CO)C(O)C(O)C1O)C2 (configuration not stated) | inconclusive [rising, single point] |
| FC(F)(F)c1cc(Nc2ccccc2)nc(-c2ccccn2)n1 | inconclusive [activator, full curve] |
| C[C@@H](NC(=O)c1coc(=O)c(Br)c1)c1ccccc1 | inconclusive [rising, single point] |
| Cn1c(=O)c2c(-c3ccccc3)n(-n3cnnc3)cc2n(C)c1=O | inconclusive [rising, single point] |
| CNC(=S)N/N=C(\C)c1ccc(Cl)c(Cl)c1 | inconclusive [rising, single point] |
| CCN(C(=O)Cn1c(Cl)nc2c1c(=O)n(C)c(=O)n2C)C1CCCCC1 | inconclusive [rising, single point] |
| Oc1ccccc1C(Nc1nccs1)c1ccc2cccnc2c1O (configuration not stated) | inconclusive [rising, single point] |
| COc1ccc(/C(C)=N/NC(=S)NCCc2ccccc2)c(O)c1 | inconclusive [rising, full curve, poor fit] |
| Cc1cc[n+](CC[n+]2ccc(C)cc2)cc1 | inactive |
| Cc1cc(C)n(-c2nc(NC(C)(C)C)nc(NC(C)(C)C)n2)n1 | inconclusive [rising, partial curve, poor fit] |
| Cc1ccc(NC(=S)N2CCn3cccc3C2c2cccnc2)cc1 (configuration not stated) | inconclusive [rising, single point] |

| Compound | Potency |
| --- | --- |
| COc1ccc(NC(=O)c2cc3c(=O)n4ccccc4nc3n2C)cc1OC | inactive |
| CN(CC(=O)Nc1ccccc1Br)C(=O)c1ccccc1-c1nc2ccccc2s1 | inactive |
| COC(=O)c1cccc(/C=N/NC(N)=S)c1O | inconclusive [activator, partial curve] |
| O=C(N[C@H]1C/C=C\C[C@H](CC(=O)N(CCO)Cc2ccccc2)C(=O)NC[C@H](c2ccccc2)OC1=O)OCC1c2ccccc2-c2ccccc21 | inactive |
| O=C(Nc1nc2cc3c(cc2s1)OCCO3)C1=COCCO1 | inactive |
| C/C(=N/NC(=S)Nc1cccc(C)c1)c1cccc([N+](=O)[O-])c1 | inconclusive [rising, single point] |
| Cc1cc(C)n(-c2nc(NCCCO)c3c4c(sc3n2)CCCC4)n1 | inconclusive [rising, single point] |
| C=CC[C@@H]1C=C[C@H](O/N=C/c2ccc(C(=O)N3[C@H](c4ccc(C)cc4)[C@@H](C)CC[C@H]3C(=O)OC)cc2)[C@@H](CO)O1 | inconclusive [rising, single point] |
| CCSc1nnc(NC(=O)c2ccccn2)s1 | inconclusive [rising, single point] |
| CN(C)c1ccc(N=Cc2cccn2C)cc1 | inconclusive [rising, single point] |
| Cc1cc(/C=C(\C#N)C(=O)Nc2ccccc2)c(C)n1-c1cccnc1 | inactive |
| O=C(CSc1nnc(Nc2ccccc2)s1)Nc1cccc(S(=O)(=O)N2CCCCC2)c1 | inconclusive [rising, single point] |
| CCN(CC)C(=O)[C@H]1C[C@H](CC(=O)NCc2cccc(C(F)(F)F)c2)C(=O)N2CCc3c([nH]c4cc(-c5ccco5)ccc34)[C@]12C | inconclusive [rising, single point] |
| C=CCn1cc(/C=C/c2cc[n+](C)cc2)c2ccccc21 | inactive |
| COc1nn(CC(=O)N2N=C(C(F)F)CC2(O)C(F)F)cc1[N+](=O)[O-] (configuration not stated) | inactive |
| CCOc1cccc(CNc2ccc(O)cc2)c1OCc1ccc(Cl)cc1 | inconclusive [rising, single point] |
| C/C(=N\NC(=S)NC(C)C)c1ccc(Cl)s1 | inconclusive [activator, partial curve] |
| CC1CC(C)(C)n2c(O)c(N=NC(N)=S)c3cccc1c32 (configuration not stated) | inconclusive [rising, single point] |
| CC(=C/C(=O)O)/C=C/c1ccco1 | inconclusive [rising, single point] |
| Cc1ccc(NC(=O)c2ccc3c(c2)C(=O)N(CC2CCCO2)C3=O)cc1C (configuration not stated) | active: 7.08 µM |
| CCC1(C)Nc2ccccc2C(=O)N1O (configuration not stated) | inconclusive [rising, single point] |
| COc1ccc(-c2c(-c3ccccc3)c(C(=O)C(=O)NCCCN(C)C)n3ccc4cc(OC)c(OC)cc4c23)cc1OC | inconclusive [rising, single point] |
| Oc1ccc(COCc2ccc(F)cc2)c2cccnc12 | inconclusive [rising, single point] |
| C/C(=N\NC(=S)NCc1ccccc1)c1ccc2ccccc2c1OC(F)F | inconclusive [rising, single point] |
